Source: PubChem BioAssay (NCI)
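Protocol summary: plate cells (96-well), add compound at 5 concentrations, incubate 48 h, interpolate endpoints linearly. Here, GI50 denotes the concentration required for 50% inhibition of growth. TGI marks complete inhibition of growth.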 Calls of active or inactive are those of the source. No stated cut-off is given here; in the data, active means GI50 below about 0.43 µM; inactive means the rest. Numbered stars: 1 amine (or outer) side, 2 acyl side, 3 side chain; on linkers, the order of the positions; unused ones are H or OH. Bridge positions count the residues as written; N and C are the ends. Square brackets hold non-standard residues; d marks the D form. Peptide text beside a SMILES is read from it. Adda = CO[C@@H](Cc1ccccc1)[C@@H](C)/C=C(C)/C=C/[C@H](N[*:1])[C@H](C)C(=O)[*:2]; dAsp(3S-Me) = C[C@H](C(=O)[*:3])[C@@H](N[*:1])C(=O)[*:2]; d(γGlu) = O=C(O)[C@@H](CCC(=O)[*:2])N[*:1]; NMeDha = C=C(NC)C(=O)O

These compounds were tested on NCI-H322M lung (assay: growth of human tumour cells (NCI), 48 h).

Row | SMILES | TGI | GI50 | outcome
1 | CC(C)(C)C(=O)N(C(=S)OCc1ccccn1)c1ccccc1 | > 100 µM | – | –
2 | C#C[C@]1(O)CC[C@H]2[C@@H]3CCC4=CC(=NCCOC(=O)c5cccc6cc7ccccc7nc56)CC[C@@H]4[C@H]3CC[C@@]21C | > 100 µM | – | –
3 | O=C1c2ccccc2-c2nnc(-c3ccc(Br)cc3)cc21 | > 100 µM | > 100 µM | –
4 | ClCc1ccc(-c2ccc(Cn3cnc4nc(Cl)nc(Cl)c43)cc2)cc1 | 44.9 µM | 26.1 µM | –
5 | O=C1C2C(C(=O)N1c1ccccc1)C1(Br)c3ccccc3C2(Br)C2C(=O)N(c3ccccc3)C(=O)C21 (centres undefined) | > 100 µM | – | –
6 | CC(C)(C)C1CCC2c3c([nH]c4ccccc34)C3C(=O)N(c4cccc([N+](=O)[O-])c4)C(=O)C3C2C1 (centres undefined) | 83.6 µM | – | –
7 | Cn1c(=O)[nH]c2nccnc2c1=O | > 10 µM | – | –
8 | O=C(CC1C(=O)Nc2ccccc2S1=O)Nc1ccccc1 (centres undefined) | > 100 µM | – | –
9 | CCN1CCN(c2cc(C)nc(N(CCNc3ccnc4cc(Cl)ccc34)Cc3ccc4c(c3)OCO4)n2)CC1 | 11.1 µM | 2.95 µM | –
10 | Clc1ccccc1/C=C\C1(c2ccccc2)OCCO1 | > 100 µM | – | –
11 | O=C1CC(=O)NC(=NN2C(=O)CSC2c2ccccc2)N1 (centres undefined) | > 100 µM | – | –
12 | O=C1C=CC(=O)N1C1CCCCCCCCCCC1 | > 100 µM | 63.4 µM | –
13 | CC1CC(C)CC(NC2=NCCO2)C1 (centres undefined) | > 100 µM | – | –
14 | COc1cc(/C=C2\C(=O)N(c3cc(Cl)ccc3Cl)C(c3ccccc3)S2(=O)=O)cc(OC)c1OC (centres undefined) | > 100 µM | – | –
15 | N=C(N)N=Nc1ccc(NN=C(N)N)c2c1ncc1c2nc2sccn21 | > 100 µM | 27.6 µM | –
16 | COc1ccc(SCc2cc(OC)c(OC)c(OC)c2)cc1OC | > 100 µM | – | –
17 | CC(CC[C@@H](C)C1CCC2[C@@H]3CC(O)C4CC(O)[C@@H](O)C[C@]4(C)C3CC[C@@]21C)C(C)(C)C (some centres undefined) | > 100 µM | – | –
18 | N#C/C(=C\c1ccccc1)c1nc(-c2cc3ccccc3oc2=O)cs1 | > 100 µM | – | –
19 | C/C(=N\NC1=NCCN1)c1cn(C2=NCCN2)nc1C | > 100 µM | – | –
20 | O=C1C2c3[nH]c4ccccc4c3C3CCCC3C2C(=O)N1c1ccccc1 (centres undefined) | > 100 µM | – | –
21 | CC(C)=C1C(=O)C[C@@]2(C)C[C@H]3OC3(C)CC/C=C(/C)CCC12 (some centres undefined) | – | – | inactive
22 | CC(=O)[CH-]C(C)=O.CC(=O)[CH-]C(C)=O.CC(=O)[CH-]C(C)=O.[In+3] | > 100 µM | > 100 µM | –
23 | COC(=O)[C@H](NC(=O)OC(C)(C)C)[C@H]1COC(C)(C)O1 | > 100 µM | – | –

Row | SMILES | TGI | GI50 | outcome
24 | CCN(CC)CCOc1ccc(N2C(=O)c3cccc4cc([N+](=O)[O-])cc(c34)C2=O)cc1 | 33.5 µM | – | –
25 | Cc1cc(C)c(S(=O)(=O)N2CCN(S(=O)(=O)c3c(C)cc(C)cc3C)OCCCCCO2)c(C)c1 | > 100 µM | – | –
26 | O=C1OCC=C1COC1OC(CO)C(O)C(O)C1O (centres undefined) | > 100 µM | – | –
27 | COP(=O)(OC)/C(=C/c1c[nH]c2ccccc12)C(=O)O | > 100 µM | – | –
28 | COc1ccc(C2C(Cl)C(=O)N2NC(=O)c2ccc(N)cc2)cc1 (centres undefined) | > 100 µM | – | –
29 | COc1cc(C(=O)NC(CCN)(c2ccccc2)c2ccccc2)cc(OC)c1OC | > 100 µM | – | –
30 | CC12CCC(C(Br)(Br)C1=O)C2(C)C (centres undefined) | > 42.2 µM | – | –
31 | COc1ccc(-c2cc(=O)c3c(OC)cccc3o2)c(OC)c1OC | > 100 µM | – | –
32 | COc1cc(NCCCCCN=C(N)N)c2ncccc2c1 | > 100 µM | 10.6 µM | –
33 | CNC(=S)Nc1sc2c(c1C#N)CCCC2 | > 75 µM | – | –
34 | CC1=NN(c2nc(N)nc(C(C#N)C(=O)c3cc4c(cc3Cl)Sc3nccn3S4(=O)=O)n2)C(C)(C)C1 (centres undefined) | > 100 µM | – | –
35 | [Cl-].[Cl-].[Cl-].[O-]c1cccc2cccnc12.[O-]c1cccc2cccnc12.[O]=[Mo] | 30.3 µM | 4.35 µM | –
36 | COc1ccc(/C=N/c2nc3cc4sc(/N=C/c5ccc(OC)cc5)nc4cc3s2)cc1 | > 100 µM | – | –
37 | CCOC(=O)N1C/C(=C/c2ccc(F)cc2)C(=O)/C(=C/c2ccc(F)cc2)C1 | 18.4 µM | 4.47 µM | –
38 | CCOC(=O)Nn1c(C)nnc1CC#N | > 100 µM | – | –
39 | Cn1c(O)c(C2=Nc3ccccc3C2=O)c2ccccc21 | > 100 µM | – | –
40 | c1ccc2c(c1)nc1n2sc2nc3ccccc3n21 | > 100 µM | – | –
41 | O=C(COc1ccc(/C=C/C(=O)c2ccc(Cl)cc2)cc1)Nc1c(Cl)cccc1Cl | > 100 µM | – | –
42 | C/C(=N\O)c1ccc(Nc2nc3ccccc3c3occc23)cc1 | 67.5 µM | – | –
43 | O=C1Nc2cc(Cl)ccc2/C1=C\c1c(-c2ccc(F)cc2)nc2ccccn12 | 23.8 µM | 2.72 µM | –
44 | COC1CC(OC2C(C)OC(OC3C(C)OC(OC4C(C)OC(O[C@H]5CC[C@@]6(C)C(=CC[C@]7(O)[C@@H]6C[C@@H](OC(=O)/C=C(\C)C(C)C)[C@@]6(C)[C@]7(O)CC[C@@]6(O)C(C)=O)C5)CC4OC)CC3OC)CC2OC)OC(C)C1O (some centres undefined) | > 12.5 µM | – | –
45 | C=C1C(=O)N[C@H](C)C(=O)N[C@@H](CC(C)C)C(=O)N[C@@H](C(=O)O)[C@H](C)C(=O)N[C@@H](CCCN=C(N)N)C(=O)N[C@@H](/C=C/C(C)=C/[C@H](C)[C@H](Cc2ccccc2)OC)[C@H](C)C(=O)N[C@@H](C(=O)O)CCC(=O)N1C (R[Adda][d(γGlu)][NMeDha][dA]L[dAsp(3S-Me)]-OH; lactam N-7) | > 5 µM | > 5 µM | –
46 | O=C(Oc1ccc(S(=O)(=O)F)cc1F)c1ccccc1Cl | > 100 µM | – | –

Row | SMILES | TGI | GI50 | outcome
47 | [N-]=[N+]=Nc1ccccc1Oc1ccccc1 | > 100 µM | – | –
48 | N#CC(/C(CCCC(=O)Nc1cccc([N+](=O)[O-])c1)=N/NC(=O)c1cc2ccccc2cc1O)c1ccccc1 (centres undefined) | > 100 µM | – | –
49 | COc1ccc(S(=O)(=O)N/N=C\c2cc([N+](=O)[O-])cc(I)c2O)c(OC)c1OC | 99.5 µM | – | –
50 | Cc1cc(N(CCC#N)CCC#N)ccc1/C=C\C(=O)Nc1ccccc1 | > 100 µM | – | –
51 | CCOc1nc(-c2ccccc2)cc2c(O)c(C(=O)N/N=C/c3ccc(O)cc3O)[nH]c(=O)c12 | > 62.2 µM | 0.934 µM | –
52 | COc1cccc(/C=C2\CCC(CCN(C)C)(C3=CCCC3)C2=O)c1 (centres undefined) | 30.2 µM | – | –
53 | CN1CCN([C@H]2C[C@H]3[C@@H]4CC=C5C[C@@H](N6CCCC6)CC[C@]5(C)[C@H]4CC[C@]3(C)[C@H]2O)CC1 | > 100 µM | – | –
54 | COc1ccc2[nH]c(S(=O)(=O)N3CC(CCl)c4ccc(N)cc43)cc2c1 (centres undefined) | 44.8 µM | – | –
55 | [C-]#[N+][C@@H]1C2[C@H](CC[C@@]1(C)O)C(=C)CC[C@@H]2[C@@]1(C)CC[C@H](Cl)C(C)(C)O1 (some centres undefined) | 30.2 µM | – | –
56 | CN(C)CCCOc1ccc(OCCCN(C)C)c2c1C(=O)c1ccccc1C2=O | 6.6 µM | 0.852 µM | –
57 | COc1cc2c(cc1O)NC(=S)[C@@H]1CCCN1C2=O | > 100 µM | – | –
58 | O=C1C2C=CC(n3[nH]c(=O)n(Cc4ccccc4)c3=O)CC2C(=O)N1c1cccc(Cl)c1 (centres undefined) | > 100 µM | – | –
59 | O=C1NC2C(=O)N(Cc3ccccc3)C(=O)C2N1 (centres undefined) | > 100 µM | – | –
60 | O=C(/C=C/c1ccc(Cl)cc1)/C=C/c1cc2ccccc2[nH]c1=O | 48 µM | 13.9 µM | –
61 | COc1ccc2[nH]c(-c3ccccc3)c(/C=C(\C#N)S(=O)(=O)c3ccccc3)c2c1 | > 100 µM | 30.1 µM | –
62 | Cc1ccc2nc(-c3ccc(N)c(Br)c3)sc2c1 | > 100 µM | – | –
63 | O=C1/C(=C/c2cc3c(=O)c4ccccc4sc3s2)NC(=S)N1c1ccccc1 | > 100 µM | – | –
64 | O=C(NN1C(=O)CS(=O)(=O)C1c1cccc(F)c1)c1ccncc1 (centres undefined) | > 100 µM | – | –
65 | Fc1cnc(NC2CC2)nc1-c1cnc2ccc(N3CCOCC3)cn12 | 15.5 µM | 0.294 µM | –
66 | O=C(N/N=C/c1ccccc1O)c1ccccc1O | > 100 µM | 2.85 µM | –
67 | Clc1ccc(CSc2ncnc3c2ncn3C2CCCCO2)cc1 (centres undefined) | > 100 µM | – | –
68 | COc1cc(OC)cc(-n2c(N)c(C#N)c3ccc([N+](=O)[O-])cc3c2=O)c1 | 66.6 µM | – | –
69 | CSc1ncc2c(n1)-c1ccccc1OC2N1CCCCC1 (centres undefined) | > 100 µM | – | –

Row | SMILES | TGI | GI50 | outcome
70 | O=C(Nc1ccc(CN2CCOCC2)cc1)c1ccc(-c2cc(Cl)ccc2Cl)o1 | 60.7 µM | 19.2 µM | –
71 | Cc1ncc([N+](=O)[O-])n1CCNC(=O)CCCn1ccnc1[N+](=O)[O-] | > 100 µM | – | –
72 | CCOC(=O)C1=C(NC(C)(C)C)OC/C1=N\NC(=O)Cc1ccccc1 | > 100 µM | – | –
73 | CC12OC1(C)C1C(=O)OCC1C2=O (centres undefined) | > 100 µM | – | –
74 | CCN(CC)Cc1cc(Nc2c3ccccc3nc3c4ccccc4n(C)c23)cc(CN(CC)CC)c1O | 15.3 µM | – | –
75 | O=c1cc(-c2ccccc2)oc2cc(Oc3nnnn3-c3ccccc3)ccc12 | > 100 µM | – | –
76 | CCOC(=O)C(=O)Nc1ccc(C)c(C)c1 | > 100 µM | – | –
77 | C=C1OC(=O)[C@]2([C@@H](/C=C/C)C=CC(=O)[C@H]2O)[C@@H]1O | > 100 µM | – | –
78 | CC(C)c1cc(Cl)nc(Cl)n1 | > 100 µM | – | –
79 | CN(C)N=Nc1ccccc1 | > 100 µM | – | –
80 | COc1cc(C=O)cc(/C=N/c2ccccn2)c1O | > 100 µM | – | –
81 | CC(=O)OC1CC2(C)C(OC(C)=O)CC1C2(C)C (centres undefined) | > 100 µM | – | –
82 | CN1C(=O)CC2CCCN2C1=O (centres undefined) | > 100 µM | – | –
83 | O=c1c2ccc3cccc4c(=O)c5ccc6cccc1c6c5-c2c34 | > 50 µM | > 50 µM | –
84 | CN(C)c1ccc(C(=O)NCCCCCCC(=O)NO)cc1 | 16.8 µM | – | –
85 | O=C1CN2C(Cl)(Cl)C2(c2ccccc2)c2cc(Cl)ccc2N1CC1CC1 (centres undefined) | 49.7 µM | – | –
86 | CCN(CC)C(=S)N/N=C(\C)c1cccc(C)n1 | 13.5 µM | – | –
87 | O=c1c2cc(F)ccc2sc2c(N3CCNCC3)nc3ccccc3c12 | 2.96 µM | 1.58 µM | –
88 | Cc1ccc(S(=O)(=O)N/N=C2\CC3C4C=CC3C2C4)cc1 (centres undefined) | > 100 µM | – | –
89 | COC(=O)c1cc(OC(C)=O)c2c(OC)ccc(OC)c2c1 | > 100 µM | – | –
